A short description of this experiment: qHTS drug screen for cell cycle checkpoint inhibitors in PARPi-resistant BRCA-mutant ovarian cancer cell lines. (AID 1963452). Particulars: PEO1/OlaR viability, CellTiter-Glo luminescence, 96 h. The method in brief:
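PEO1, PEO4 and PEO1/OlaR ovarian cancer cells, 600 per well, exposed 96 h at 37C to a dilution series. Viability read by CellTiter-Glo luminescence, normalized to DMSO and empty wells; activity summarized as Z-AUC.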

Where [1] appears, read: measured here: PEO1 parental viability.

Structures are written as SMILES. Where “and” joins values, the source holds several entries; their conditions need not be identical. Equal values may be shown once. The list shows a part of the results. Shown are side measurements of this screen, not its main read-out; they come without a call. Words in brackets tell the shape of the fitted curve; partial curves, single points and poor fits give uncertain potencies.
Tags give direction and shape of the fitted curve.

`Fc1cccc(-n2cnc3c(NCc4nc5c(F)c(F)ccc5[nH]4)nc(N4CCOCC4)nc32)c1`: the AC50 (in general, the midpoint of the concentration-response curve, whichever way the signal moves) by setting is: under setting [1], 0.123 µM [falling, full curve]; (measured here: PEO4 viability) 0.219 µM [falling, full curve].

`O=C1C[C@@H](c2ccc(O)cc2)Oc2cc(O)cc(O)c21`: the AC50 by setting is: under setting [1], 0.347 µM [rising, partial curve, poor fit]; (measured here: PEO4 viability) 1.74 µM [rising, partial curve, poor fit].

Turning to `Cc1ccc(Nc2ncc3c(n2)N(C)C(=O)N(c2cc(NC(=O)c4cccc(C(F)(F)F)c4)ccc2C)C3)cn1`, the AC50 under setting [1] was 0.0977 µM [falling, full curve] and the half-maximal activity concentration (AC50) (measured here: PEO4 viability) is 1.38 µM [falling, partial curve, poor fit].

Turning to `CC(C)(C)c1[nH]cnc1/C=c1\[nH]c(=O)/c(=C/c2ccccc2)[nH]c1=O`, the AC50 was 0.616 µM [falling, partial curve] under setting [1] and 0.0389 µM [falling, full curve, poor fit] (measured here: PEO4 viability).

For `NC(=O)C1=C(O)[C@@]2(O)C(=O)C3=C(O)c4c(O)cccc4C[C@H]3C[C@H]2CC1=O`, the AC50 by setting is: under setting [1], 12.3 µM [falling, partial curve, poor fit]; (measured here: PEO4 viability) 3.09 µM [falling, full curve].

With `C[C@H]1COCCN1c1cc(C2(S(=O)(=O)C3CC3)CC2)nc(-c2ccc(NC(=S)NCCO)cc2)n1`, the AC50 under setting [1] is 0.195 µM [falling, full curve] and the AC50 (measured here: PEO4 viability) was 0.138 µM [falling, full curve].

Regarding `C[C@@H]1CCNC(=O)c2cc3ccc(C(=O)Nc4nc5ccccc5n4CCCN(C)C)cc3n21`, the AC50 is 24.5 µM [falling, single point] under setting [1] and 27.5 µM [falling, single point] (measured here: PEO4 viability).

As for `Nc1ccn([C@@H]2O[C@H](CO)[C@@H](O)C2(F)F)c(=O)n1`, the AC50 by setting is: under setting [1], 0.0098 µM [falling, full curve]; (measured here: PEO4 viability) 1.1 µM [falling, full curve].

As to `Cc1cc(Nc2ncc(Cl)c(Nc3ccccc3S(=O)(=O)C(C)C)n2)c(OC(C)C)cc1C1CCNCC1`, the AC50 reads like this: under setting [1], 6.16 µM [falling, partial curve]; (measured here: PEO4 viability) 2.19 µM [falling, full curve].

For `COC1(c2sc3c(N4CCOCC4)nc(-c4cnc(N)nc4)nc3c2C)COC1`, the AC50 runs as follows: under setting [1], 0.389 µM [falling, full curve, poor fit]; (measured here: PEO4 viability) 0.309 µM [falling, full curve].

Regarding `CN(C(=O)CNC(=O)/C=C/c1cccc(Cl)c1)C1CCS(=O)(=O)CC1`, the AC50 is 2.19 µM [falling, full curve] under setting [1] and 0.977 µM [falling, full curve] (measured here: PEO4 viability).

`Cc1noc(-c2ccc(-c3ccc(C4(C(=O)O)CC4)cc3)cc2)c1NC(=O)O[C@H](C)c1ccccc1`: the AC50 under setting [1] is 13.8 µM [falling, single point] and the AC50 (measured here: PEO4 viability) was 15.5 µM [falling, single point].

For the compound `C/C(=N\NC(=O)c1cccc(S(=O)(=O)N2CCOCC2)c1)c1cc(Cl)ccc1O`, the concentration at half-maximal activity (AC50) was 1.1 µM [falling, full curve] and 1.55 µM [falling, full curve] under setting [1]; 692 nM [falling, full curve, poor fit] and 1.38 µM [falling, full curve] (measured here: PEO4 viability).

Take `NC(=O)/C(=C/n1cnc(-c2cc(C(F)(F)F)cc(C(F)(F)F)c2)n1)c1cncnc1`: the AC50 was 0.0616 µM [falling, full curve] under setting [1] and 0.0977 µM [falling, full curve] (measured here: PEO4 viability).

For the compound `CCCc1cc(C)[nH]c(=O)c1CNC(=O)c1cc(-c2ccc(N3CCN(C(C)C)CC3)nc2)cc2c1cnn2C(C)C`, the AC50 is 21.9 µM [falling, single point] under setting [1] and 13.8 µM [falling, partial curve] (measured here: PEO4 viability).

With `COc1cc(C(=O)NC2CCN(C)CC2)c(F)cc1Nc1ncc2c(n1)N(C1CCCC1)CC(F)(F)C(=O)N2C`, the AC50 was 0.0436 µM [falling, full curve] under setting [1] and 0.0692 µM [falling, full curve] (measured here: PEO4 viability).

Consider `Cc1cc(C)c(CNC(=O)c2cc(-c3ccc(CN4CCOCC4)cc3)cc3c2cnn3C2CCCC2)c(=O)[nH]1`, for which the concentration at half-maximal activity (AC50) was 1.95 µM [falling, partial curve, poor fit] under setting [1] and 27.5 µM [falling, single point] (measured here: PEO4 viability).

On to `CN(C)Cc1ccc(S(=O)(=O)n2ccc(/C=C/C(=O)NO)c2)cc1`, for which the AC50 runs as follows: under setting [1], 17.4 µM [falling, partial curve]; (measured here: PEO4 viability) 15.5 µM [falling, partial curve].

Take `CCCc1cc(C(=O)N[C@H](Cc2ccc(-c3cccc(OC(F)(F)F)c3)nc2)C(=O)N[C@@H]2CCNC2)sc1C`: the AC50 under setting [1] was 15.5 µM [falling, single point] and the AC50 (measured here: PEO4 viability) is 24.5 µM [falling, single point].

Consider `COc1cc(OC)c(/C=C/S(=O)(=O)Cc2ccc(OC)c(NCC(=O)O)c2)c(OC)c1`, for which the AC50 is, setting by setting: under setting [1], 0.0155 µM [falling, full curve]; (measured here: PEO4 viability) 0.0219 µM [falling, full curve].

Regarding `Cc1nc2c(-c3cnc(N)nc3)nc(N3CCOCC3)nc2n1C(C)C`, the AC50 runs as follows: under setting [1], 1.23 µM [falling, full curve]; (measured here: PEO4 viability) 1.1 µM [falling, full curve].

Consider `Nc1nc(-c2nn(Cc3ccccc3F)c3ncccc23)ncc1C1CC1`, for which the AC50 runs as follows: under setting [1], 1.1 µM [falling, full curve, poor fit]; (measured here: PEO4 viability) 2.45 µM [falling, partial curve].

Turning to `Nc1ncnc(Nc2ccc(OCc3ccccc3)c(Cl)c2)c1/C=N/OCCN1CCOCC1`, the AC50 was 17.4 µM [falling, single point] under setting [1] and 17.4 µM [falling, partial curve] (measured here: PEO4 viability).

Consider `COC(=O)[C@H]1[C@@H](O)[C@@]2(O)c3c(OC)cc(O[C@@H]4O[C@@H]([C@@H](O)CO)CO[C@H]4OC)cc3O[C@@]2(c2ccc(OC)cc2)[C@@H]1c1ccccc1`, for which the AC50 under setting [1] is 17.4 µM [falling, single point] and the AC50 (measured here: PEO4 viability) is 12.3 µM [falling, partial curve, poor fit].

`O=C(/C=C/c1ccc2ccc(C(F)(F)F)cc2n1)c1ccncc1`: the AC50 is 3.47 µM [falling, full curve] under setting [1] and 4.36 µM [falling, full curve] (measured here: PEO4 viability).

For `Cc1[nH]c2ccc(F)cc2c1-c1nc2c3cccnc3c3ncccc3c2[nH]1`, the AC50 runs as follows: under setting [1], 0.398 µM [falling, full curve]; (measured here: PEO4 viability) 0.282 µM [falling, full curve].

Turning to `COc1ccc(S(=O)(=O)N2CCc3cccc(-c4ccncc4)c32)cc1`, the AC50 is, setting by setting: under setting [1], 0.692 µM [falling, full curve]; (measured here: PEO4 viability) 0.616 µM [falling, full curve].

Turning to `COc1nc(OCc2cccc(-c3ccccc3)c2C)ccc1CNCCNC(C)=O`, the AC50 runs as follows: under setting [1], 19.5 µM [falling, partial curve]; (measured here: PEO4 viability) 19.5 µM [falling, single point].

For `COc1nnc2ccc(N3CCC(c4ccc(OCCN5CCN(C)C(=O)[C@H]5C)cc4)CC3)nn12`, the AC50 under setting [1] is 0.245 µM [falling, full curve] and the AC50 (measured here: PEO4 viability) is 0.138 µM [falling, full curve].

As for `COCC(=O)NC/C=C/c1ccc2ncnc(Nc3ccc(Oc4ccc(C)nc4)c(C)c3)c2c1`, the AC50 reads like this: under setting [1], 17.4 µM [falling, single point]; (measured here: PEO4 viability) 11 µM [falling, partial curve].

`CN1CCC(c2c(O)cc(O)c3c(=O)cc(-c4ccccc4Cl)oc23)C1CO` (stereo not given): the half-maximal activity concentration (AC50) runs as follows: under setting [1], 1.1 µM [falling, full curve]; (measured here: PEO4 viability) 1.38 µM [falling, full curve].

Regarding `CCn1nc(C2CCN(C(=O)CCO)CC2)nc1-c1cnc(N)c(-c2nnc(C(C)(C)C)o2)n1`, the AC50 by setting is: under setting [1], 15.5 µM [falling, partial curve]; (measured here: PEO4 viability) 19.5 µM [falling, partial curve].

With `CC1=C(CO)C(=O)O[C@@H]([C@@H](C)[C@H]2CC[C@H]3[C@@H]4C[C@H]5O[C@]56[C@@H](O)C=CC(=O)[C@]6(C)[C@H]4CC[C@]23C)C1`, the AC50 is 1.1 µM [falling, full curve] under setting [1] and 0.616 µM [falling, full curve] (measured here: PEO4 viability).

Take `C[C@@H](N)C1CCC(C(=O)Nc2ccncc2)CC1` (stereo not given in full): the AC50 was 11 µM [rising, partial curve, poor fit] under setting [1] and 0.0275 µM [rising, full curve, poor fit] (measured here: PEO4 viability).

As to `CN1CCN(c2ccc(OC(F)(F)F)c(Nc3ncc4c(n3)-c3c(c(C(N)=O)nn3CCO)CC4)c2)CC1`, the AC50 is 0.049 µM [falling, full curve] under setting [1] and 0.0616 µM [falling, full curve] (measured here: PEO4 viability).

`CNC(=O)[C@H]1O[C@@H](n2cnc3c(NCc4cccc(I)c4)nc(Cl)nc32)[C@H](O)[C@@H]1O`: the AC50 by setting is: under setting [1], 17.4 µM [falling, single point]; (measured here: PEO4 viability) 19.5 µM [falling, single point].

Consider `C[C@@H](Oc1cc(C(=O)Nc2ccc(C(=O)N3CCN(C)CC3)cc2)nnc1N)c1c(Cl)ccc(F)c1Cl`, for which the AC50 under setting [1] was 6.92 µM [falling, partial curve] and the AC50 (measured here: PEO4 viability) was 1.55 µM [falling, full curve].

On to `COC(=O)c1ccc([C@H]2c3[nH]c4ccccc4c3C[C@H](C(=O)OC)N2C(=O)CCl)cc1`, for which the AC50 was 24.5 µM [falling, single point] under setting [1] and 24.5 µM [falling, single point] (measured here: PEO4 viability).

For the compound `CCCn1c(=O)c2[nH]c(-c3cnn(Cc4cccc(C(F)(F)F)c4)c3)nc2n(CC)c1=O`, the AC50 reads like this: under setting [1], 2.45 µM [rising, partial curve, poor fit]; (measured here: PEO4 viability) 0.0035 µM [rising, single point].

In the case of `COc1cc(C(N)=O)ccc1NC(=O)[C@@H]1N[C@@H](CC(C)(C)C)[C@@]2(C(=O)Nc3cc(Cl)ccc32)[C@H]1c1cccc(Cl)c1F`, the AC50 is, setting by setting: under setting [1], 27.5 µM [falling, single point]; (measured here: PEO4 viability) 13.8 µM [falling, partial curve].

The values above are taken from PubChem BioAssay (NCATS).
